Test results reported in article PMC12511354.
No constants are given. Whether binding was seen depends on the method and setting. Binding seen in cells or lysates may run through a third protein. Some results given as binding are weak or reduced against the parent protein; the word gives no strength.

Protein sequences, listed by entry. Tags and fused reporters are not part of them.
UniProt Q8BSQ9: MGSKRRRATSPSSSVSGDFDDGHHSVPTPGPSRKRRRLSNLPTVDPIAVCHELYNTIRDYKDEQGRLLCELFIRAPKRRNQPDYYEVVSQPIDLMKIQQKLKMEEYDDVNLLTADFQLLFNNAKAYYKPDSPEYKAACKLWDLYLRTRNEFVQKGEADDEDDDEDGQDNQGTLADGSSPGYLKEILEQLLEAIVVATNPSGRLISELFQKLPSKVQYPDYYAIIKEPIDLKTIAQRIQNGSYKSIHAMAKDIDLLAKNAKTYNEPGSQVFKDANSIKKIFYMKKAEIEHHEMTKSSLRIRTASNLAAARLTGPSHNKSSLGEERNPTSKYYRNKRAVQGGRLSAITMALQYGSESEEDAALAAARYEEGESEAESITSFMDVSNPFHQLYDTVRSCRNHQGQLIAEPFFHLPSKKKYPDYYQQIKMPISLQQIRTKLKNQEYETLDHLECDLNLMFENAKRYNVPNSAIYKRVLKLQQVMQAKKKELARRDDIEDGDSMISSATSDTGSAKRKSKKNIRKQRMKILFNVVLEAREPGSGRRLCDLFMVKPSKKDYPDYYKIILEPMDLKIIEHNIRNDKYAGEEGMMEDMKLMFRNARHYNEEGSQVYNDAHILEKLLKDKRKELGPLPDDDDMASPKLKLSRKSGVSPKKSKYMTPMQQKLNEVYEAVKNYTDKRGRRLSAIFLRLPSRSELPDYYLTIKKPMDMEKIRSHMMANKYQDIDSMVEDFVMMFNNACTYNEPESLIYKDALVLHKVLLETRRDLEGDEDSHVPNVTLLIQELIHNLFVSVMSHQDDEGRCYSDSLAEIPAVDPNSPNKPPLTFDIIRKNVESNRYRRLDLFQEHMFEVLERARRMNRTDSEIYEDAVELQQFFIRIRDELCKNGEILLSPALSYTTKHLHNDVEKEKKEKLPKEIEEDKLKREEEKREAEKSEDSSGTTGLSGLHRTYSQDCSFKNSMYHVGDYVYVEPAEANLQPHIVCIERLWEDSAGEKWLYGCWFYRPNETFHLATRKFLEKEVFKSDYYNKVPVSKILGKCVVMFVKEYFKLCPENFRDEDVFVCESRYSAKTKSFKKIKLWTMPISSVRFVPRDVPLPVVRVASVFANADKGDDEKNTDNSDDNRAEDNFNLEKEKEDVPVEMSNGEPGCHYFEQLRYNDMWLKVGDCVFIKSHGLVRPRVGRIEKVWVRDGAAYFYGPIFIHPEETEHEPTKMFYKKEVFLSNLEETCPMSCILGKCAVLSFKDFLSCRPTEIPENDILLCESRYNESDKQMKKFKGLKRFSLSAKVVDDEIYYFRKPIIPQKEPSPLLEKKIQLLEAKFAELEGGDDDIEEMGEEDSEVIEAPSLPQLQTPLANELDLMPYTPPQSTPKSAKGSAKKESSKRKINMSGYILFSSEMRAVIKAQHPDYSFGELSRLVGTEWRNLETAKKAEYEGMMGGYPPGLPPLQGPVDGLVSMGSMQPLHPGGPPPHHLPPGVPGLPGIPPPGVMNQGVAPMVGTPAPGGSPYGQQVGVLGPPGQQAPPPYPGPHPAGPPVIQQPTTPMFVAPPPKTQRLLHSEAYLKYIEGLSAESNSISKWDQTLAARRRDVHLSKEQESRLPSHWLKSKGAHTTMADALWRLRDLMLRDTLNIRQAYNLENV

Molecular target: PBRM1 (mouse (endogenous in liver)) (UniProt Q8BSQ9)
Test: co-IP; native PBRM1 IP from MNase-digested liver nuclear extract of wild-type (CT0-CT20) or FH-H3.3A (CT8, CT20) mice; isotype-matched IgG as negative control; immunoblots

binding | Binder
binds | PHF10 (protein, UniProt Q9D8M7 1-497) MTAAGPGAAPSPGRCDSDPASPGAQSPKDDNEDNSNDGTHPCKRRRMGSGDSSRSCETSSQDLSFSYYPAENLIEYKWPPDETGEYYMLQEQVSEYLGVTSFKRKYPDLERRDLSHKEKLYLRELNVITETQCTLGLTALRSDEVIDLMIKEYPAKHAEYSVILQEKERQRITDHYKEYSQMQQQSTQKVEASKVPEYIKKAAKKAAEFNSNLNRERMEERRAYFDLQTHVIQVPQGKYKVLPTDRTKVSSYPVALIPGQFQEYYKRYSPDELRYLPLNTALYEPPLDPELPALDSDGDSDDGEDGGGDEKRKNKGTSDSSSGNVSEGDSPPDSQEDTFHGRQKSKDKMATPRKDGSKRSVLSKSAPGYKPKVIPNALCGICLKGKESNKKGKAESLIHCSQCDNSGHPSCLDMTMELVSMIKTYPWQCMECKTCIICGQPHHEEEMMFCDVCDRGYHTFCVGLGAIPSGRWICDCCQRAPPTPRKVGRRGKNSKEG
binds | BRD7 (protein, UniProt O88665 1-651) MGKKHKKHKSDRHFYEEYVEKPLKLVLKVGGSEVTELSTGSSGHDSSLFEDRSDHDKHKDRKRKKRKKGEKQAPGEEKGRKRRRVKEDKKKRDRDRAENEVDRDLQCHVPIRLDLPPEKPLTSSLAKQEEVEQTPLQEALNQLMRQLQRKDPSAFFSFPVTDFIAPGYSMIIKHPMDFSTMKEKIKNNDYQSIEELKDNFKLMCTNAMIYNKPETIYYKAAKKLLHSGMKILSQERIQSLKQSIDFMSDLQKTRKQKERTDACQSGEDSGCWQREREDSGDAETQAFRSPAKDNKRKDKDVLEDKWRSSNSEREHEQIERVVQESGGKLTRRLANSQCEFERRKPDGTTTLGLLHPVDPIVGEPGYCPVRLGMTTGRLQSGVNTLQGFKEDKRNRVTPVLYLNYGPYSSYAPHYDSTFANISKDDSDLIYSTYGEDSDLPNNFSISEFLATCQDYPYVMADSLLDVLTKGGHSRSLQDLDMSSPEDEGQTRALDTAKEAEITQIEPTGRLESSSQDRLTALQAVTTFGAPAEVFDSEEAEVFQRKLDETTRLLRELQEAQNERLSTRPPPNMICLLGPSYREMYLAEQVTNNLKELTQQVTPGDVVSIHGVRKAMGISVPSPIVGNSFVDLTGECEEPKETSTAECGPDAS
